# From PMC4336329 (PLoS ONE, 2015)
# In all, about 310,000 compounds went through this assay and about 2,200 (0.71%) showed an effect of 50% or more. Effects have a minus sign here. The list shows a part of the results.
# Biological target: human ether-à-go-go-related gene (hERG) potassium channel (human, UniProt Q12809)
# Assay: primary screen, population patch clamp on CHO cells stably expressing hERG
# Sequence of human ether-à-go-go-related gene (hERG) potassium channel (Q12809 whole entry, looked up): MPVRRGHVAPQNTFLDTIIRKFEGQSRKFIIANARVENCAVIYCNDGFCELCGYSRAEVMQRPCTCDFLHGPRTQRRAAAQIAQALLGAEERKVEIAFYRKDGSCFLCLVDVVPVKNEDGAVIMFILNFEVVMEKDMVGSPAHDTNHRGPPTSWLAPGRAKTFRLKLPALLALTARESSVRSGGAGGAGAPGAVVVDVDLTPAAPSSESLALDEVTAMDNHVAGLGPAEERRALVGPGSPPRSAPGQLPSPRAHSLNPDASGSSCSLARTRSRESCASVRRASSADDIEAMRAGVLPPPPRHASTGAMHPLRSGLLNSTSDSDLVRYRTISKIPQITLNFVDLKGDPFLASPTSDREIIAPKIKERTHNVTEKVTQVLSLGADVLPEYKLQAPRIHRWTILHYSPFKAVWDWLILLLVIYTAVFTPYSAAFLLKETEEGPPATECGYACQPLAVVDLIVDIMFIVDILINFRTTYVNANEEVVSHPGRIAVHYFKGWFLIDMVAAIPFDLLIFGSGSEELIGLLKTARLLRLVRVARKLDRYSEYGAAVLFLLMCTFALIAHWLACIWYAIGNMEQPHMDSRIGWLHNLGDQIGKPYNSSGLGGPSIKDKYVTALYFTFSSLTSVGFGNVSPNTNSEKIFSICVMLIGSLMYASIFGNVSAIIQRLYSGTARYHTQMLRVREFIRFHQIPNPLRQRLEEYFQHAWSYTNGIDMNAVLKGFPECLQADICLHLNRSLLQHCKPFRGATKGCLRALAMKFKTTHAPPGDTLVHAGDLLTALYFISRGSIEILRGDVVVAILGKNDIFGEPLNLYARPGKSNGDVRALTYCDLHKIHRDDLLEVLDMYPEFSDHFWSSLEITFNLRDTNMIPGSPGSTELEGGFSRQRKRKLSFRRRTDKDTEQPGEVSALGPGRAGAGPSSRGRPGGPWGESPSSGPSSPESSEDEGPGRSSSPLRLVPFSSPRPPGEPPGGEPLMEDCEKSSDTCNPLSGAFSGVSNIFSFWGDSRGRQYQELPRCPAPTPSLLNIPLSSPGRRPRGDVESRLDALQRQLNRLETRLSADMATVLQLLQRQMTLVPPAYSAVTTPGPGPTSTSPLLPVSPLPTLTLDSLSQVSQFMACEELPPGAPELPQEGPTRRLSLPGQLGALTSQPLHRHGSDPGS
row,Structure (SMILES),"hERG current change (%, negative = inhibition) at 1uM [%]"
1,CCc1nnc(NC(=O)C2CC(=O)N(C3CCCC3)C2)s1 (stereo not drawn),13.5
2,COc1ccc2c(c1)C(C)=CC(C)(C)N2S(=O)(=O)c1ccc(NC(C)=O)cc1,9.85
3,CCOC(=O)C1C(=O)C(C(C)=O)C(=O)CC1CC(C)SCC (stereo not drawn),7.64
4,Cc1coc2c(C)c3oc(=O)c(CCC(=O)N[C@@H](C)C(=O)N[C@@H](Cc4ccccc4)C(=O)O)c(C)c3cc12,4.42
5,C=CCN(c1nc(C)c(Br)c(OC)n1)S(=O)(=O)c1ccc(C)cc1,14.4
6,COc1ccc(-c2ccc(-c3noc(-c4ccccc4)n3)c(OC)n2)cc1,0.351
7,O=S(=O)(Nn1cnnc1)c1ccccc1,1.68
8,Brc1ccc(-c2nnc3n2CCCCC3)cc1,3.62
9,CC(=O)NCCc1ccc(C(=O)Cn2cnc3ccccc3c2=O)cc1,15
10,COC(=O)CSc1nnc(-c2cccs2)n1-c1ccc(Cl)cc1,-16
11,COCCNC(=O)C(C#N)c1nc2ccccc2nc1N1CCCCCC1 (stereo not drawn),3.63
12,Cc1noc(C)c1S(=O)(=O)Nc1cccc(CO)c1,7.91
13,CC(=O)C1=C(C)NC(C)=C(C(C)=O)C1c1ccccc1,6.75
14,O=C(O)c1cc(=O)[nH]c2c(Cl)cccc12,3.95
15,Cc1ccccc1-c1nnn(Cc2ccc(-c3nn[nH]n3)cc2)n1,5.38
16,COC(=O)CSc1nc2sc3c(c2c(=O)n1C1CCCCC1)CCN(C)C3,6.3
17,CC(=O)Nc1ccc(NC(=O)c2ccccc2CCc2ccccc2)cc1,3.98
18,O=C(Cn1c(=O)oc2cc(S(=O)(=O)N3CCCCC3)ccc21)N1CCc2ccccc21,1.8
19,O=c1c2ccccc2[nH]c(=S)n1CCc1ccccc1,17.9
20,O=c1c([N+](=O)[O-])cccn1Cc1cccc(Br)c1,10.7
21,Brc1ccccc1OCCCCn1cnc2ccccc21.Cl,14.2
22,COc1ccccc1NS(=O)(=O)c1cccc(C(=O)N2CC(C)OC(C)C2)c1 (stereo not drawn),2.84
23,O=C(Cn1c(C(F)(F)F)nc2ccccc21)Oc1cccc(C(F)(F)F)c1,-5.22

row,Structure (SMILES),"hERG current change (%, negative = inhibition) at 1uM [%]"
1,Cc1ccccc1CCN(C(=O)Cn1nnc2ccccc21)C(C(=O)NCC1CCCO1)c1nc2ccccc2n1C (stereo not drawn),13.8
2,Cc1[nH]c2ccccc2c1C(=O)CSc1n[nH]c(N)n1,1.64
3,CC(=O)c1cccc(NC(=O)NCCc2ccc(Cl)cc2)c1,11.3
4,Cc1cc(N2C(=O)C3CCC(c4ccccc4)CC3C2=O)no1 (stereo not drawn),21.4
5,Cn1c(C(=O)NCCc2ccccc2)cc(=O)n(C)c1=O,3.57
6,CN(C)CCNc1ncnc2c1cnn2-c1ccc(Cl)cc1,5.11
7,O=c1cc(N2CCOCC2)[nH]c(=O)n1C1CCCCC1,15.4
8,CCC(C)C(=O)Nc1ccc([N+](=O)[O-])cc1OC (stereo not drawn),13.8
9,O=C(CSc1ncnc2c1cnn2-c1ccccc1)Nc1ccc2c(c1)OCO2,16.6
10,COc1ccc(C(=O)OCC(=O)c2ccc(Cl)s2)c(OC)c1OC,11.8
11,CN1C(=O)Cc2cc(S(=O)(=O)NCCc3ccc(Cl)cc3)ccc21,-2.7
12,Cc1ccc(-c2cc(C(=O)N3CCCC3)c3ccccc3n2)s1,13.1
13,CCCCSc1nc(C)c(CC(=O)O)c(=O)[nH]1,10.1
14,CC1(C)CC(=O)C(C=NCC2CCCO2)=C(O)C1 (stereo not drawn),9.01
15,O=C(N/N=C/c1ccco1)c1cc(-c2cccc3ccccc23)n[nH]1,9.96
16,O=C(NC(=S)Nc1cccc(C(F)(F)F)c1)c1ccc2nonc2c1,13.4
17,CCOC(=O)SC1=N/C(=C\c2ccc(N(C)C)cc2)C(=O)S1,9.35
18,Cn1c(=O)oc2cc(S(=O)(=O)Nc3ccc4c(c3)OCO4)ccc21,9.9
19,Fc1ccc(OCc2nc3ccccc3s2)cc1,12
20,CCCc1ncc(CN2CCCCC2C(=O)Nc2ccc(Oc3ccccc3)nc2)cn1 (stereo not drawn),12.1
21,O=C(Cn1nc(C(F)(F)F)cc1C1CC1)Nc1ccccc1F,16.1
22,O=C(NCCN1CCCC1)c1ccc(CS(=O)(=O)c2c(Cl)cccc2Cl)o1,-20.3
23,Cc1nnc2ccc(-c3ccc(NS(=O)(=O)c4ccc(Cl)s4)cc3)nn12,7.12

row,Structure (SMILES),"hERG current change (%, negative = inhibition) at 1uM [%]"
1,C/C(=N\NC(=O)c1c[nH]c2ccccc12)c1ccc(C)o1,1.87
2,COCc1nc(-c2ccc(-c3ccccc3)nc2OC)no1,10.1
3,COc1ccc2oc(C(=O)N3CCc4ccccc43)c(C)c2c1,16.2
4,Cc1ccc(C)c(NC(=S)NC23CN4CN(CN(C4)C2)C3)c1,7.99
5,CCc1nnc(SCC(=O)Nc2ccccc2)nc1CC,-0.373
6,O=C(Nc1ccccc1-c1ccccc1NC(=O)c1ccco1)c1ccco1,10.8
7,Cc1c(NC(=O)c2cccc(NC(=O)Cc3ccccc3F)c2)c(=O)n(-c2ccccc2)n1C,12.1
8,Cc1c(OCC(=O)Nc2cccnc2)ccc2c3c(c(=O)oc12)CCC3,20.4
9,COc1ccccc1NC1=C(N2CCCCC2)C(=O)c2ccccc2C1=O,-1.15
10,CCOC(=O)N1CCN(C(=O)COC(=O)C2CCN(S(=O)(=O)c3c(Cl)cccc3Cl)CC2)CC1,4.61
11,CCOC(=O)c1sc(N)nc1C(C)(C)C,7.8
12,Cc1ccc(C2(C)NC(=O)N(CC(=O)Nc3ccc(S(=O)(=O)Nc4nccs4)cc3)C2=O)cc1 (stereo not drawn),11.1
13,COc1cccc(NC(=O)CSc2nnc(Cc3ccc(C)cc3)c(=O)n2N)c1,-11.3
14,CC1C(O)=C(c2nc3ccccc3[nH]2)C(=N)N1c1ccccc1 (stereo not drawn),-8.29
15,COc1cc(OC)c2c(-c3ccccc3)cc(=O)oc2c1C(CC(=O)N1CCOCC1)c1ccc2c(c1)OCO2 (stereo not drawn),11.5
16,CN(C)c1cccc(C(=O)OCC(=O)NC2CCCC2)c1,17.6
17,Cc1cccnc1NC(=O)Nc1cccc(Cl)c1,6.83
18,COc1cc(C(=O)N2CCN(C(=O)C3CCCO3)CC2)cc(OC)c1OC (stereo not drawn),3.81
19,Cc1ccc(Cn2c(Cc3ccccc3)nc3ccccc32)cc1,1.76
20,O=C(CSc1nnc([C@@H]2CCCN2)o1)c1ccc(Cl)cc1,-5.24
21,CCOc1ccc(CC(=O)OCn2nnc3ccccc3c2=O)cc1,3.58
22,COc1ccc(CNC(=O)CCSCc2cccc(Cl)c2)cc1,2.33
23,O=C(Nc1ccc2c(c1)OCO2)c1ccc(Cl)s1,0.696

row,Structure (SMILES),"hERG current change (%, negative = inhibition) at 1uM [%]"
1,O=C(Nc1ccccc1N1CCCCC1)c1ccc(F)cc1,9.26
2,Cn1ncc([N+](=O)[O-])c1C(=O)Nc1nc2ccccc2n1CCN1CCCCC1,-10.7
3,O=c1ccc2ccc(OCc3nnc(-c4ccccc4Br)o3)cc2o1,6.11
4,COc1cc(/C=N/N=C(N)N)ccc1OCc1ccccc1Cl,-11
5,COc1ccc(CCN2C(=O)CC(NNC(=O)c3ccccc3Br)C2=O)cc1 (stereo not drawn),-0.79
6,Cc1ccc2[nH]c3c(c2c1)CCN(C)C3,6.89
7,CC(=O)N(c1nnc(-c2ccc(C)cc2)s1)C1CCCC1,6.29
8,COc1ccccc1N(C(=O)CNC(=O)c1ccco1)C(C(=O)NC1CCCC1)c1ccco1 (stereo not drawn),7.39
9,O=C1CCCN1C(=O)COc1ccccc1[N+](=O)[O-],11
10,O=C(Nc1ccc(F)cc1)c1cncs1,3.62
11,COC(=O)c1ccccc1NC(=O)Cn1cnc2c(cnn2-c2ccccc2)c1=O,6.01
12,Cc1ccc(-c2ccc(=O)n(Cc3ccc(F)cc3Cl)n2)cc1,11.6
13,Cc1ccc(Cn2ccc(NC(=O)c3cc(CC(C)C)on3)n2)cc1,5.93
14,CC(=O)Nc1ccc(NC(=O)C(C)OC(=O)c2ccc3ccccc3n2)cc1 (stereo not drawn),11.5
15,CC1(C)Cc2c(c(N3CCOCC3)nc3sc(C(=O)Nc4ccccc4)c(N)c23)CO1,7.99
16,O=c1cc(CN2CCN(S(=O)(=O)c3ccc4ccccc4c3)CC2)nc2sccn12,5.94
17,Cc1ccc(S(=O)(=O)n2nc(-c3cccnc3)nc2N)cc1,7.94
18,NS(=O)(=O)c1ccc(NC(=O)COC(=O)c2cn(-c3ccccc3)nc2-c2ccc(F)cc2)cc1,4.75
19,CCC(C)(C)NC(=O)CN(Cc1cccs1)C(=O)C(=O)Nc1ccc2c(c1)OCCO2,5.02
20,O=C(c1cc2cc(Br)cc(Br)c2oc1=O)N1CCCC1,3.81
21,Cc1cccc(COCC(Cc2ccccc2)N2CCN(C(=O)c3cc(Cl)cc(Cl)c3)CCC2=O)c1 (stereo not drawn),-8.49
